Where “and” joins values, the source holds several entries; their conditions need not be identical. Equal entries are not always repeated. Structures can show the parent of a compound that is named as a salt. ± gives the standard deviation of the averaged measurements. Whole data set: some 3,100 compounds, median “mean cytoplasmic OPP incorporation (global translation) relative to DMSO” near 100, cut for the lowest 2% near 56. The list shows a part of the results.
test system: U2OS; test: mean cytoplasmic OPP incorporation (global translation) relative to DMSO (% of DMSO); higher = more protein synthesis; settings: 10 µM; 24 h
Procedure: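 Primary image-based screen in U2OS cells: compounds at 10 uM for 24 h, then a 1 h o-propargyl-puromycin (OPP) pulse, click labelling, and high-throughput microscopy. Mean cytoplasmic OPP intensity and nuclei count were normalised to DMSO wells within each plate (DMSO = 100) and averaged over triplicate plates.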

| Compound | mean cytoplasmic OPP incorporation |
| --- | --- |
| COc1ccc(C(=O)c2ccccc2O)c(O)c1 [Dioxybenzone] | 102 |
| CC(C)(C)NC[C@H](O)COc1ccccc1C1CCCC1 [Penbutolol sulfate] | 102 |
| COc1ccc2cccc(N3CCN(CCNC(=O)c4ccc(F)cc4)CC3)c2c1 | 107 |
| O=C(O)[C@H]1/C(=C/CO)O[C@@H]2CC(=O)N21 [Clavulanate potassium salt] | 106 |
| O=C(OCCOCCO)c1ccccc1Nc1cccc(C(F)(F)F)c1 [Etofenamate] | 103 |
| O=C(O)C1(C(=O)O)CCC1.[NH2-].[NH2-].[Pt+2] [Carboplatin] | 104 |
| COc1ccc(CC(=O)NC(/N=C(\NC#N)Nc2cccc3ncccc23)C(C)(C)C)cc1OC (stereo not drawn) | 115 |
| O=c1c(O)c(-c2ccc(O)c(O)c2)oc2cc(O)cc(O)c12 [Quercetin (Sophoretin)] | 102 |
| O=c1c(O)c(-c2ccc(O)c(O)c2)oc2cc(O)cc(O)c12 [Quercetin] | 104 ± 9.1 |
| O=C(Nc1ccc([N+](=O)[O-])cc1O)Nc1ccccc1Br | 95.7 |
| Cc1cnc(C(=O)O)c[n+]1[O-] [Acipimox] | 102 |
| c1ccc(-c2n[nH]c3c2oc2ccccc23)cc1 | 87.3 |
| CC/C(=C(\c1ccccc1)c1ccc(OCCN(C)C)cc1)c1ccccc1 [Tamoxifen citrate] | 118 ± 4.6 |
| CC/C(=C(\c1ccccc1)c1ccc(OCCN(C)C)cc1)c1ccccc1 [Tamoxifen] | 123 |
| CCc1oc2ccccc2c1C(=O)c1cc(Br)c(O)c(Br)c1 [Benzbromarone] | 97.4 |
| c1ccc2oc(C3=NCCN3)cc2c1 [2-BFI hydrochloride] | 97.6 |
| NCc1ccc(S(N)(=O)=O)cc1 [Mafenide hydrochloride] | 102 |
| CN[C@@H]1[C@H](O[C@H]2[C@H](O[C@H]3[C@H](O)[C@@H](O)[C@H](NC(=N)N)[C@@H](O)[C@@H]3NC(=N)N)O[C@@H](C)[C@]2(O)CO)O[C@@H](CO)[C@H](O)[C@H]1O [Dihydrostreptomycin sulfate] | 99.7 |
| CCN(CCCOc1ccc2c(Nc3cc(CC(=O)Nc4cccc(F)c4)[nH]n3)ncnc2c1)CCOP(=O)(O)O [Barasertib (AZD1152-HQPA)] | 112 |
| Cc1ccccc1N=Nc1ccc(NC(=O)c2ccnn2C)c(C)c1 | 98.9 |
| O=c1[nH]nc(Sc2ncc([N+](=O)[O-])s2)n1-c1ccc2c(c1)OCCO2 | 39.7 ± 16 |

| Compound | mean cytoplasmic OPP incorporation |
| --- | --- |
| NS(=O)(=O)c1cc2c(cc1Cl)NC(CC1CCCC1)NS2(=O)=O (stereo not drawn) [Cyclopenthiazide] | 103 |
| O=C(O)CCCCC1CCSS1 (racemic) [DL-?-Lipoic acid] | 117 |
| CC(C)(C)NCC(O)c1cc(O)cc(O)c1 (stereo not drawn) [Terbutaline hemisulfate] | 98.5 |
| CCOC(=O)[N-]c1c[n+](N2CCOCC2)no1 [Molsidomine] | 104 |
| CC[N+](CC)(CC)CCOc1cccc(OCC[N+](CC)(CC)CC)c1OCC[N+](CC)(CC)CC [Gallamine triethiodide] | 101 |
| C#C[C@]1(O)CC[C@H]2[C@@H]3CCC4=C(CCC(=O)C4)[C@H]3CC[C@@]21C [Norethynodrel] | 95.7 |
| C=C(c1ccc(C(=O)O)cc1)c1cc2c(cc1C)C(C)(C)CCC2(C)C [Bexarotene] | 107 |
| CC(C(=O)O)c1ccc(C(=O)c2cccs2)cc1 (stereo not drawn) [Suprofen] | 101 |
| CN1CCN(c2nc(C3=C(c4c[nH]c5ccccc45)C(=O)NC3=O)c3ccccc3n2)CC1 [Sotrastaurin (AEB071)] | 103 ± 1.1 |
| COc1cc2ncnc(Nc3ccc(F)c(Cl)c3)c2cc1OCCCN1CCOCC1 [Iressa] | 103 |
| COc1cc2ncnc(Nc3ccc(F)c(Cl)c3)c2cc1OCCCN1CCOCC1 [Gefitinib (Iressa)] | 109 |
| COc1cc2ncnc(Nc3ccc(F)c(Cl)c3)c2cc1OCCCN1CCOCC1 [Gefitinib] | 110 |
| CN1CCC[C@@H]1CCO[C@](C)(c1ccccc1)c1ccc(Cl)cc1 [Clemastine fumarate] | 107 ± 12 |
| CCOc1ccc(NC(C)=O)cc1 [Phenacetin] | 96.5 |
| [O-][S+](c1ccccc1)c1ccc2nnnn2n1 (stereo not drawn) | 92.2 |
| O=C(c1ccc(OCCCc2c[nH]cn2)cc1)C1CC1 [Ciproxifan] | 97.8 |
| CCN1CCC[C@H]1CNC(=O)c1c(O)c(Cl)cc(Cl)c1OC [Raclopride] | 102 ± 4.3 |
| NC(N)=NCCC[C@H](NC(=O)[C@@H]1CCCN1C(=O)[C@H](N)Cc1ccccc1)C(=O)CCl | 99.7 |
| COC(=O)[C@]12CCC(C)(C)C[C@H]1[C@H]1C(=O)C=C3[C@@]4(C)C=C(C#N)C(=O)C(C)(C)[C@@H]4CC[C@@]3(C)[C@]1(C)CC2 [Bardoxolone Methyl] | 25.6 |
| CCCCC[C@H](O)/C=C/[C@H]1[C@H](O)CC(=O)[C@@H]1CCCCCCC(=O)O [Alprostadil] | 105 ± 5.9 |
| CCCCC[C@H](O)/C=C/[C@H]1[C@H](O)CC(=O)[C@@H]1CCCCCCC(=O)O [Alprostadil (Caverject)] | 108 |

| Compound | mean cytoplasmic OPP incorporation |
| --- | --- |
| O=C(O)c1cccnc1C(=O)O [Quinolinic acid] | 101 |
| CC1(C)CNc2cc(NC(=O)c3cccnc3NCc3ccncc3)ccc21 [Motesanib Diphosphate] | 111 |
| CC1(C)CCC(C)(C)c2cc(C(=O)Nc3ccc(C(=O)O)cc3)ccc21 | 105 and 99.6 |
| Oc1cc(O)c(Cl)cn1 [Gimeracil] | 96.1 |
| COC(=O)C1=C(C)NC(C)=C(C(=O)OCC(C)C)C1c1ccccc1[N+](=O)[O-] (stereo not drawn) [Nisoldipine] | 107 |
| COC(=O)C1=C(C)NC(C)=C(C(=O)OCC(C)C)C1c1ccccc1[N+](=O)[O-] (stereo not drawn) [Nisoldipine (Sular)] | 109 |
| CN1CCN(c2c(F)cc3c(=O)c(C(=O)O)cn4c3c2SCC4)CC1 [Rufloxacin] | 105 |
| CC(=O)N1CCN(C)CC1 [1-Acetyl-4-methylpiperazine hydrochloride] | 99.1 |
| COc1ccc(C2CC(c3ccccc3)=NN2c2ccc(S(N)(=O)=O)cc2)cc1 (stereo not drawn) | 102 |
| CCCC(=O)[O-].[Na+] [Sodium butyrate] | 115 |
| Cc1cc(Nc2cc(N3CCN(C)CC3)nc(/C=C/c3ccccc3)n2)n[nH]1 | 91.9 |
| COCCOc1ccc2c(c1)ncn2-c1ccc2cccc(N3CCC(N)CC3)c2n1 | 74.5 ± 17 |
| COC(=O)C1=C(C)NC(C)=C(C(=O)OCCN(C)Cc2ccccc2)C1c1cccc([N+](=O)[O-])c1 (stereo not drawn) [Nicardipine hydrochloride] | 115 |
| OC[C@H]1O[C@@H](c2ccc(Cl)c(Cc3ccc(O[C@H]4CCOC4)cc3)c2)[C@H](O)[C@@H](O)[C@@H]1O | 92.9 |
| CC(C)NCC(O)c1ccc(O)c(O)c1 (single isomer, unassigned; (-)) [(-)-Isoproterenol hydrochloride] | 111 |
| O=C1C(O)=C([C@H]2CC[C@H](c3ccc(Cl)cc3)CC2)C(=O)c2ccccc21 [Atovaquone] | 102 |
| Cc1ccc(/C=C2\CNC/C(=C\c3ccc(C)cc3)C2=O)cc1 | 93.2 |
| Cc1ccccc1C(OCCN(C)C)c1ccccc1 (stereo not drawn) [Orphenadrine hydrochloride] | 112 |
| CCOC(=O)C1=C(C)NC(C)=C(C(=O)OCC)C1 [Diludin] | 106 |
| CNCc1cc(-c2ccccc2F)n(S(=O)(=O)c2cccnc2)c1 | 106 |
| CCCCCCCCCCCC1=C(O)C(=O)C=C(O)C1=O [Embelin] | 104 |

| Compound | mean cytoplasmic OPP incorporation |
| --- | --- |
| CN(C)CCOC(c1ccc(Cl)cc1)c1ccccn1 (stereo not drawn) [Carbinoxamine maleate salt] | 93 |
| CCCCCCCCCCCCCCCC(=O)C(F)(F)F | 93.7 |
| O=C1CCc2ccc(OCCCCN3CCN(c4cccc(Cl)c4Cl)CC3)cc2N1 [Aripiprazole] | 111 |
| Nc1nc2c(ccc3ccccc32)s1 | 91.2 |
| NC(=O)NC1NC(=O)NC1=O (stereo not drawn) [Allantoin] | 98.1 |
| CN(C)[C@@H]1C(O)=C(C(=O)NCNCCCC[C@H](N)C(=O)O)C(=O)[C@@]2(O)C(O)=C3C(=O)c4c(O)cccc4[C@@](C)(O)[C@H]3C[C@@H]12 [Lymecycline] | 100 |
| CCCCCOC(=O)Nc1nc(=O)n([C@@H]2O[C@H](C)[C@@H](O)[C@H]2O)cc1F [Capecitabine (Xeloda)] | 99.7 |
| CCN(CC)CCOc1ccc(C(=C(Cl)c2ccccc2)c2ccccc2)cc1 [Clomiphene citrate (Z,E)] | 135 |
| CCc1cc(-c2n[nH]c(C)c2-c2ccc3c(c2)OCCO3)c(O)cc1O | 95.9 ± 2.1 |
| CN1CCC(=C2c3ccccc3CCc3sccc32)CC1 [Pizotifen malate] | 116 |
| COc1ncc(-c2ccc3nccc(-c4ccnnc4)c3c2)cc1NS(=O)(=O)c1ccc(F)cc1F | 73.1 |
| CN1CCOC(c2ccccc2)c2ccccc2C1 (stereo not drawn) [Nefopam hydrochloride] | 105 |
| c1cc2c3c(c1)c1c(n3CCNC2)CCCC1 [WAY 629 hydrochloride] | 99.9 |
| Cc1cnc(C(=O)NCCc2ccc(S(=O)(=O)NC(=O)NC3CCCCC3)cc2)cn1 [Glipizide] | 102 ± 4.6 |
| CC(C)NC[C@H](O)COc1cccc2[nH]ccc12 [(S)-(-)-Pindolol] | 101 |
| O=C(Cc1ccccc1)Nc1nc2ccc(Cl)cc2c2nc(-c3ccco3)nn12 | 104 |
| CC(O)(P(=O)(O)O)P(=O)(O)O [Etidronate (Didronel)] | 106 |
| CC(O)(P(=O)(O)O)P(=O)(O)O [Etidronic acid, disodium salt] | 109 |
| Cc1ccc2c(=O)c3ccccc3n(CCCN)c2c1C | 78.5 |
| CCC1NC(=O)c2cc(S(N)(=O)=O)c(Cl)cc2N1 (stereo not drawn) [Quinethazone] | 103 |

From the supplement of paper PMC8183993
